# Screen size: about 310,000 compounds; about 2,200 (0.71%) showed an effect of 50% or more. Effects have a minus sign here. The list shows a part of the results.
# Biological target: human ether-à-go-go-related gene (hERG) potassium channel (human, UniProt Q12809)
# Assay: primary screen, population patch clamp on CHO cells stably expressing hERG
# Sequence of human ether-à-go-go-related gene (hERG) potassium channel (Q12809 whole entry, looked up): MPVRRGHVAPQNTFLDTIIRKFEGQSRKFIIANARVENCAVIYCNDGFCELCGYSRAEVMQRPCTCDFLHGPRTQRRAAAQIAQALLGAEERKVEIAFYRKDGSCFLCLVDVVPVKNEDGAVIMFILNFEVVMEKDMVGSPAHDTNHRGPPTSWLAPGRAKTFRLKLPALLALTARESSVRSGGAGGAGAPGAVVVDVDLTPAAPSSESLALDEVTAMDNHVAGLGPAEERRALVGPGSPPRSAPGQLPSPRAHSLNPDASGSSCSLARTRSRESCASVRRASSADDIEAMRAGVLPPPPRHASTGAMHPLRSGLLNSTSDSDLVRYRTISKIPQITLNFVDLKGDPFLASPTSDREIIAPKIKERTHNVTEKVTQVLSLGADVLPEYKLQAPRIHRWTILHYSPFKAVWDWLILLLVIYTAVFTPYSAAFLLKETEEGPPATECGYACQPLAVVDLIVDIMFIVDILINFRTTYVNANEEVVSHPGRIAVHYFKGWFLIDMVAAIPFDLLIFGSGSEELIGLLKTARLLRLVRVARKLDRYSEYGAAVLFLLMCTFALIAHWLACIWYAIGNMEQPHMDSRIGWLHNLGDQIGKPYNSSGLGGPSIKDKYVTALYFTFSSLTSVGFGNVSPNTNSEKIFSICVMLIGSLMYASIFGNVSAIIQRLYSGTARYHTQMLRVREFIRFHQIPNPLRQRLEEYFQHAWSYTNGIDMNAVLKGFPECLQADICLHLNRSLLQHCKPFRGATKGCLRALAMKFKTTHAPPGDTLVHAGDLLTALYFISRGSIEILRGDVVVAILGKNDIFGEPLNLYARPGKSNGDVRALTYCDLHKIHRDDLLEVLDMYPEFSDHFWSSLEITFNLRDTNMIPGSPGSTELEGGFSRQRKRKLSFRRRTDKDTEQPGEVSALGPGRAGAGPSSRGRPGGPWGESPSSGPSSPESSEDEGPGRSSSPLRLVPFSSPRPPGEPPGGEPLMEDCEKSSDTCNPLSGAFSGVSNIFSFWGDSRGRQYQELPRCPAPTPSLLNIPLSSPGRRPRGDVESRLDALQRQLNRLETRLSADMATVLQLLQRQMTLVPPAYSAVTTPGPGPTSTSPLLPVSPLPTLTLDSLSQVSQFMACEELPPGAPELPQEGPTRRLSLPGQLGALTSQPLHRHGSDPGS
row,SMILES,"hERG current change (%, negative = inhibition) at 1uM [%]"
1,O=C(N/N=C/c1cccc(Oc2ccccc2)c1)c1ccccc1Br,20.8
2,CCn1ncc(Br)c1C(=O)Nc1ccc(-c2ccno2)cc1,12
3,O=C(NCc1ccccc1)C(=O)Nc1nccs1,11.7
4,O=C(c1cccs1)N1CCN(C(=O)C(c2ccccc2)c2ccccc2)CC1,-7.9
5,COc1ccc(/C=N/Nc2nc(Nc3ccccc3)nc(N3CCCC3)n2)cc1,9.1
6,COc1ccc(OC)c(-c2cc(C(=O)N3CCN(c4ccccc4)CC3)no2)c1,-3.18
7,COCCOC(=O)C1=C(C)NC(=S)NC1/C=C/c1ccccc1 (stereo not drawn),8.19
8,C=CCSc1nnc(-c2c[nH]c3ccccc23)n1CCOC,10.5
9,CCC(C)C(NC(=O)c1ccccc1NC(=O)c1ccc(C)cc1)C(=O)O (stereo not drawn),14.2
10,Cc1cc(NC(=O)CSCc2nc(-c3cccc(Cl)c3)oc2C)no1,11.7
11,O=C(COc1ccc(S(=O)(=O)NC2CCCCC2)cc1Cl)NCC1CCCO1 (stereo not drawn),7.84
12,CC(=O)CSc1nnc(-c2ccc(S(=O)(=O)N3CCOCC3)cc2)n1C,17.3
13,O=[N+]([O-])c1c(NCCCO)cc(Sc2nc3ccccc3s2)c2nonc12,2.55
14,O=C(COc1ccc(Cl)cc1)NCc1nnc(SCC(=O)Nc2ccc3c(c2)OCCO3)o1,12.6
15,Cc1cc(=O)oc(C)c1C(=O)NCCc1ccc(F)cc1,4.08
16,N#CCSc1nnc(CNc2cccc(Cl)c2)o1,8.19
17,O=C(OCC(=O)N1CCN(S(=O)(=O)c2ccccc2)CC1)c1ccc([N+](=O)[O-])o1,7.48
18,Cc1cccc(-c2nsc(SCC(=O)NCc3ccc4c(c3)OCO4)n2)c1,8.32
19,CCOc1ccc(OCCCCn2cnc3ccccc3c2=O)cc1,3.27
20,C=CCNCCOCCSc1ccc(Cl)cc1.O=C(O)C(=O)O,-0.123
21,CCCCOC(=O)c1ccc(NC(=O)C(=O)NCc2ccncc2)cc1,7.46

row,SMILES,"hERG current change (%, negative = inhibition) at 1uM [%]"
1,C=CCN1C(=O)c2ccc(C(=O)NCC(c3ccccc3)N(C)C)cc2C1=O (stereo not drawn),7.08
2,CCn1ncc(Cl)c1C(=O)Nc1cc([N+](=O)[O-])ccc1OC,11.5
3,CC(=O)c1ccc(NC(=O)C(C)OC(=O)c2cccc(-n3cnnn3)c2)cc1 (stereo not drawn),5.99
4,Cc1nn(Cc2ccccc2Cl)c(C)c1C(=O)OCC(=O)NC1CCCC(C)C1C (stereo not drawn),6.97
5,Cc1cccc(N2CCN(C(=O)/C=C/c3cccs3)CC2)c1C,9.29
6,COc1ccc(N2CCN(C(CNC(=O)OCc3ccccc3)c3ccco3)CC2)cc1 (stereo not drawn),-2.14
7,Cc1ccc(S(=O)(=O)NC2c3cccc4cccc(c34)C2Sc2ncccn2)cc1 (stereo not drawn),11.8
8,O=C(O)c1ccc2c(c1)C(=O)N(c1cccc3ccccc13)C2=O,10.8
9,O=C(CSc1nnc(CNC(=O)c2c(F)cccc2Cl)o1)NCc1ccccc1,13.6
10,COc1cc(NC(=O)N[C@H](C(=O)O)C(C)C)cc(OC)c1,1.71
11,Nc1ccc(S(=O)(=O)Nc2ccc(C(=O)c3ccccc3)cc2)cc1,14.6
12,COc1ccc(C(=O)NC(=S)NNC(=O)Cc2cccs2)cc1,6.79
13,CCc1ccc(CNC(=O)CCCC(=O)n2nc(C)c3ccccc32)cc1,16.1
14,COc1ccc(N(C(=O)CNC(=O)c2ccco2)C(C(=O)NCC2CCCO2)c2ccc(OC)c(OC)c2)cc1 (stereo not drawn),14.1
15,Cc1noc(C)c1S(=O)(=O)NC1CCN(Cc2ccccc2)CC1,9
16,C[C@@H](C(=O)NCCc1c[nH]c2ccccc12)[C@H]1C[C@]1(C)[C@H](NC(=O)OCc1ccccc1)c1ccccc1,8.13
17,CN(C)S(=O)(=O)c1ccc(Cl)c(NC(=O)CSc2nc3c(cc2C#N)C(=O)CC(C)(C)C3)c1,-45.7
18,COc1ccccc1/C=C/C=N/n1c(-c2ccco2)n[nH]c1=S,12.6
19,CCOc1ccc(CN2CCNC(=O)C2CC(=O)NC2CCCCCC2)cc1 (stereo not drawn),10.4
20,COc1ccc(CCn2c(-c3cc([N+](=O)[O-])cc([N+](=O)[O-])c3)nc3nc4ccccc4nc32)cc1,4.54
21,C[C@@H]1CC[C@@]2(O[C@H](CCO)C[C@@H](O)[C@@H]2O)O1,18.6
